# From the supplement of paper PMC8728848
# The list shows a part of the results.
# B1: Gal 3 (Homo sapiens), P17931 (protein)
# chain: MADNFSLHDALSGSGNPNPQGWPGAWGNQPAGAGGYPGASYPGAYPGQAPPGAYPGQAPPGAYHGAPGAYPGAPAPGVYPGPPSGPGAYPSSGQPSAPGAYPATGPYGAPAGPLIVPYNLPLPGGVVPRMLITILGTVKPNANRIQLDFQRGNDVAFHFNPRFNENNRRVIVCNTKLDNNWGREERQSVFPFESGKPFKIQVLVEPDHFKVAVNDAHLLQYNHRVKKLNEISKLGISGDIDLTSASYTMI
# Assays:
# Experiment in all cases: glycan array binding signal (z-score within array); higher = stronger binding
# Details in all cases: glycan notation: IUPAC condensed, linker removed; mutation: A146Q
# [1] = molecular target: Gal(b1-3)[Fuc(a1-4)]GlcNAc
# Outline: (§1)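 Arrays were curated from the Consortium for Functional Glycomics database, 3228 in total, and kept only where the protein sequence was available. Binding is expressed as a within-array Z-score. This score was averaged across arrays of the same protein sequence at different concentrations or buffers and across linkers, and negative values can be read as non-binding.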
# [2] = molecular target: Gal(b1-3)[Fuc(a1-4)]GlcNAc(b1-2)Man(a1-3)[Gal(b1-3)[Fuc(a1-4)]GlcNAc(b1-2)Man(a1-6)]Man(b1-4)GlcNAc(b1-4)GlcNAc
# Outline: as §1
# [3] = molecular target: Gal(b1-3)[Fuc(a1-4)]GlcNAc(b1-2)Man(a1-3)[Gal(b1-3)[Fuc(a1-4)]GlcNAc(b1-2)Man(a1-6)]Man(b1-4)GlcNAc(b1-4)[Fuc(a1-6)]GlcNAc
# Outline: as §1
# [4] = molecular target: Gal(b1-3)[Fuc(a1-4)]GlcNAc(b1-3)Gal(b1-3)[Fuc(a1-4)]GlcNAc
# Outline: as §1
# [5] = molecular target: Gal(b1-3)[Fuc(a1-4)]GlcNAc(b1-3)Gal(b1-4)GlcNAc
# Outline: as §1
# [6] = molecular target: Gal(b1-3)[Fuc(a1-4)]GlcNAc(b1-3)Gal(b1-4)[Fuc(a1-3)]GlcNAc
# Outline: as §1
# [7] = molecular target: Gal(b1-3)[GlcNAc(b1-6)]GalNAc
# Outline: as §1
# [8] = molecular target: Gal(b1-3)[Neu5Ac(a2-6)]GalNAc
# Outline: as §1
# [9] = molecular target: Gal(b1-3)[Neu5Ac(a2-6)]GlcNAc(b1-6)Gal(b1-4)Glc
# Outline: as §1
# [10] = molecular target: Gal(b1-3)[Neu5Ac(b2-6)]GalNAc
# Outline: as §1
# [11] = molecular target: Gal(b1-4)GalNAc(a1-3)[Fuc(a1-2)]Gal(b1-4)GlcNAc
# Outline: as §1
# [12] = molecular target: Gal(b1-4)GalNAc(b1-3)[Fuc(a1-2)]Gal(b1-4)GlcNAc
# Outline: as §1
# [13] = molecular target: Gal(b1-4)Glc
# Outline: as §1
# [14] = molecular target: Gal(b1-4)Glc6S
# Outline: as §1
# [15] = molecular target: Gal(b1-4)GlcNAc
# Outline: as §1
# [16] = molecular target: Gal(b1-4)GlcNAc(a1-6)Gal(b1-4)GlcNAc
# Outline: as §1
# [17] = molecular target: Gal(b1-4)GlcNAc(b1-2)Man(a1-3)Man(b1-4)GlcNAc(b1-4)GlcNAc
# Outline: as §1
# [18] = molecular target: Gal(b1-4)GlcNAc(b1-2)Man(a1-3)[Gal(b1-4)GlcNAc(b1-2)Man(a1-6)]Man(b1-4)GlcNAc(b1-4)GlcNAc
# Outline: as §1
# [19] = molecular target: Gal(b1-4)GlcNAc(b1-2)Man(a1-3)[Gal(b1-4)GlcNAc(b1-2)Man(a1-6)]Man(b1-4)GlcNAc(b1-4)[Fuc(a1-6)]GlcNAc
# Outline: as §1
# [20] = molecular target: Gal(b1-4)GlcNAc(b1-2)Man(a1-3)[GlcNAc(b1-2)Man(a1-6)]Man(b1-4)GlcNAc(b1-4)GlcNAc
# Outline: as §1
# [21] = molecular target: Gal(b1-4)GlcNAc(b1-2)Man(a1-3)[Man(a1-6)]Man(b1-4)GlcNAc(b1-4)GlcNAc
# Outline: as §1
# [22] = molecular target: Gal(b1-4)GlcNAc(b1-2)Man(a1-6)Man(b1-4)GlcNAc(b1-4)GlcNAc
# Outline: as §1
# [23] = molecular target: Gal(b1-4)GlcNAc(b1-2)Man(a1-6)[GlcNAc(b1-2)Man(a1-3)]Man(b1-4)GlcNAc(b1-4)GlcNAc
# Outline: as §1
# [24] = molecular target: Gal(b1-4)GlcNAc(b1-2)Man(a1-6)[Man(a1-3)]Man(b1-4)GlcNAc(b1-4)GlcNAc
# Outline: as §1
# [25] = molecular target: Gal(b1-4)GlcNAc(b1-2)[Gal(b1-4)GlcNAc(b1-4)]Man(a1-3)[Gal(b1-4)GlcNAc(b1-2)Man(a1-6)]Man(b1-4)GlcNAc(b1-4)GlcNAc
# Outline: as §1
# [26] = molecular target: Gal(b1-4)GlcNAc(b1-2)[Gal(b1-4)GlcNAc(b1-4)]Man(a1-3)[Gal(b1-4)GlcNAc(b1-2)[Gal(b1-4)GlcNAc(b1-6)]Man(a1-6)]Man(b1-4)GlcNAc(b1-4)GlcNAc
# Outline: as §1
# [27] = molecular target: Gal(b1-4)GlcNAc(b1-3)Gal(b1-3)GlcNAc
# Outline: as §1
# [28] = molecular target: Gal(b1-4)GlcNAc(b1-3)Gal(b1-4)Glc
# Outline: as §1
# [29] = molecular target: Gal(b1-4)GlcNAc(b1-3)Gal(b1-4)GlcNAc
# Outline: as §1
# [30] = molecular target: Gal(b1-4)GlcNAc(b1-3)Gal(b1-4)GlcNAc(b1-3)Gal(b1-4)GlcNAc
# Outline: as §1
# [31] = molecular target: Gal(b1-4)GlcNAc(b1-3)Gal(b1-4)[Fuc(a1-3)]GlcNAc(b1-3)Gal(b1-4)[Fuc(a1-3)]GlcNAc
# Outline: as §1
# [32] = molecular target: Gal(b1-4)GlcNAc(b1-3)GalNAc
# Outline: as §1
# [33] = molecular target: Gal(b1-4)GlcNAc(b1-3)[Gal(b1-4)GlcNAc(b1-6)]Gal(b1-4)GlcNAc
# Outline: as §1
# [34] = molecular target: Gal(b1-4)GlcNAc(b1-3)[Gal(b1-4)GlcNAc(b1-6)]GalNAc
# Outline: as §1
# [35] = molecular target: Gal(b1-4)GlcNAc(b1-3)[GlcNAc(b1-6)]Gal(b1-4)GlcNAc
# Outline: as §1
# [36] = molecular target: Gal(b1-4)GlcNAc(b1-6)Gal(b1-4)GlcNAc
# Outline: as §1
# [37] = molecular target: Gal(b1-4)GlcNAc(b1-6)GalNAc
# Outline: as §1
# [38] = molecular target: Gal(b1-4)GlcNAc(b1-6)[Gal(b1-3)]GalNAc
# Outline: as §1
# [39] = molecular target: Gal3S(b1-3)GalNAc
# Outline: as §1
# [40] = molecular target: Gal3S(b1-3)GlcNAc
# Outline: as §1
# [41] = molecular target: Gal3S(b1-3)[Fuc(a1-4)]GlcNAc
# Outline: as §1
# [42] = molecular target: Gal3S(b1-4)Glc
# Outline: as §1
# [43] = molecular target: Gal3S(b1-4)Glc6S
# Outline: as §1
# [44] = molecular target: Gal3S(b1-4)GlcNAc
# Outline: as §1
# [45] = molecular target: Gal3S(b1-4)GlcNAc6S
# Outline: as §1
binder,measurement,setting,value
B1,glycan array binding signal (z-score),[1],-0.196
same,glycan array binding signal (z-score),[2],-0.197
same,glycan array binding signal (z-score),[3],-0.197
same,glycan array binding signal (z-score),[4],-0.193
same,glycan array binding signal (z-score),[5],-0.182
same,glycan array binding signal (z-score),[6],-0.169
same,glycan array binding signal (z-score),[7],-0.141
same,glycan array binding signal (z-score),[8],-0.195
same,glycan array binding signal (z-score),[9],-0.193
same,glycan array binding signal (z-score),[10],-0.19
same,glycan array binding signal (z-score),[11],-0.188
same,glycan array binding signal (z-score),[12],-0.202
same,glycan array binding signal (z-score),[13],-0.197
same,glycan array binding signal (z-score),[14],-0.195
same,glycan array binding signal (z-score),[15],-0.196
same,glycan array binding signal (z-score),[16],-0.188
same,glycan array binding signal (z-score),[17],-0.083
same,glycan array binding signal (z-score),[18],0.03
same,glycan array binding signal (z-score),[19],-0.2
same,glycan array binding signal (z-score),[20],-0.184
same,glycan array binding signal (z-score),[21],-0.181
same,glycan array binding signal (z-score),[22],-0.181
same,glycan array binding signal (z-score),[23],-0.142
same,glycan array binding signal (z-score),[24],-0.196
same,glycan array binding signal (z-score),[25],-0.051
same,glycan array binding signal (z-score),[26],0.085
same,glycan array binding signal (z-score),[27],1.28
same,glycan array binding signal (z-score),[28],-0.035
same,glycan array binding signal (z-score),[29],1.03
same,glycan array binding signal (z-score),[30],3.5
same,glycan array binding signal (z-score),[31],-0.192
same,glycan array binding signal (z-score),[32],-0.187
same,glycan array binding signal (z-score),[33],-0.086
same,glycan array binding signal (z-score),[34],-0.17
same,glycan array binding signal (z-score),[35],0.13
same,glycan array binding signal (z-score),[36],-0.186
same,glycan array binding signal (z-score),[37],-0.192
same,glycan array binding signal (z-score),[38],-0.186
same,glycan array binding signal (z-score),[39],-0.144
same,glycan array binding signal (z-score),[40],0.653
same,glycan array binding signal (z-score),[41],-0.2
same,glycan array binding signal (z-score),[42],-0.193
same,glycan array binding signal (z-score),[43],0.794
same,glycan array binding signal (z-score),[44],0.015
same,glycan array binding signal (z-score),[45],0.851
